Measured values published in the supplement of paper PMC9446081.
In all, about 39,000 compounds went through this assay and about 220 (0.56%) showed activity. The list shows a part of the results.

Tested on: Escherichia coli K-12 BW25113
Assay: relative growth (OD600 normalised to plate interquartile mean) (fraction); higher = less growth inhibition, active = 0.2 or less
Conditions: 50 µM; LB; incubation time: overnight (16-24 h)
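Further: static incubation at 37 °C against the wild-type strain, values averaged over two biological replicates.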

Row | Compound | relative growth
1 | CNC[C@H]1OCCCC[C@@H](C)Oc2ccc(NC(=O)c3ccncc3)cc2C(=O)N([C@H](C)CO)C[C@H]1C | inactive: 0.977
2 | COc1ccc(NC(=O)Nc2ccc3c(c2)CC(=O)N([C@H](C)CO)C[C@H](C)[C@@H](CN(C)C(=O)Nc2cccc4ccccc24)O3)cc1 | inactive: 1
3 | C[C@@H]1CCCCO[C@@H](CN(C)C(=O)CCC(F)(F)F)[C@H](C)CN([C@H](C)CO)C(=O)c2cc(NS(=O)(=O)c3ccccc3)ccc2O1 | inactive: 0.994
4 | N[C@H](C(=O)O)c1cc(O)cc(O)c1 | inactive: 0.989
5 | CC[N+](CC)(CC)CCOc1cccc(OCC[N+](CC)(CC)CC)c1OCC[N+](CC)(CC)CC.[I-].[I-].[I-] | inactive: 1.15
6 | C[C@H](CO)N1C[C@H](C)[C@H](CN(C)C(=O)Nc2cccc3ccccc23)Oc2ccc(NC(=O)NC3CCCCC3)cc2CC1=O | inactive: 0.986
7 | CC(C)NC(=O)Nc1cccc2c1O[C@@H](CN(C)S(=O)(=O)c1ccc(F)cc1)[C@@H](C)CN([C@@H](C)CO)C2=O | inactive: 0.946
8 | Cc1ccc(S(=O)(=O)N(C)C[C@H]2OCCCC[C@H](C)Oc3ccc(NC(=O)Nc4c(C)noc4C)cc3C(=O)N([C@@H](C)CO)C[C@H]2C)cc1 | inactive: 0.968
9 | CN1C(=O)c2cc(NC(=O)c3ccc(F)cc3)ccc2OC[C@H]2O[C@H](CC(=O)N3CCOCC3)CC[C@H]21 | inactive: 1.02
10 | COc1ccc(S(=O)(=O)N(C)C[C@H]2OCCCC[C@@H](C)Oc3ccc(NC(=O)Nc4ccc(C(F)(F)F)cc4)cc3C(=O)N([C@H](C)CO)C[C@@H]2C)cc1 | inactive: 1.01
11 | Cc1cccc(NC(=O)Nc2ccc3c(c2)C(=O)N(C)[C@@H]2CC[C@@H](CC(=O)NCc4ccccc4Cl)O[C@@H]2CO3)c1 | inactive: 0.998
12 | C[C@@H]1ON(c2ccc(C(=O)OC(C)(C)C)cc2)[C@H](c2ccc(O)cc2)[C@H]1C(=O)N1C(=O)OC[C@H]1Cc1ccccc1 | inactive: 1.05
13 | C[C@@H]1CN([C@H](C)CO)C(=O)c2cc(NC(=O)C3CCCCC3)ccc2O[C@@H](C)CCCCO[C@@H]1CN(C)S(=O)(=O)c1ccc(F)cc1 | inactive: 0.94
14 | C[C@H]1CN([C@@H](C)CO)C(=O)c2cc(NC(=O)CCC(F)(F)F)ccc2O[C@@H]1CN(C)C(=O)Nc1cccc2ccccc12 | inactive: 1.02
15 | C[C@@H]1CN([C@H](C)CO)S(=O)(=O)c2ccc(Br)cc2O[C@@H]1CN(C)C(=O)CN1CCOCC1 | inactive: 0.886
16 | C[C@@H]1CN([C@@H](C)CO)C(=O)Cc2cc(NS(C)(=O)=O)ccc2O[C@@H]1CN(C)S(=O)(=O)c1cccs1 | inactive: 0.979
17 | CN(C)CCCNC(=O)C[C@@H]1CC[C@@H]2[C@H](COc3ccc(NC(=O)c4ccccc4F)cc3C(=O)N2C)O1 | inactive: 1.02
18 | NCC(=O)NCC(=O)O | inactive: 1.01
19 | C[C@H](CO)N1C[C@H](C)[C@@H](CN(C)Cc2ccc(Cl)c(Cl)c2)Oc2ccc(NC(=O)Cc3cn(C)c4ccccc34)cc2CC1=O | inactive: 1.03

Row | Compound | relative growth
20 | COc1ccc(NC(=O)N(C)C[C@@H]2OCc3cn(nn3)CCCC(=O)N([C@H](C)CO)C[C@H]2C)c(OC)c1 | inactive: 0.995
21 | COc1ccc(Br)cc1S(=O)(=O)NC(=O)/C=C/c1ccccc1Cc1ccc2ccccc2c1 | inactive: 0.987
22 | Cc1c(C(=O)NN2CCCCC2)nn(-c2ccc(Cl)cc2Cl)c1-c1ccc(I)cc1 | inactive: 1
23 | COc1ccc(NC(=O)Nc2ccc3c(c2)C(=O)N([C@H](C)CO)C[C@H](C)[C@@H](CN(C)Cc2ccc4c(c2)OCO4)OCCCC[C@H](C)O3)cc1 | inactive: 0.991
24 | CCc1nc2ccc(C(=O)NCCCN3CCCC3=O)cn2c1N(CC)C(=O)NCCc1ccccc1 | inactive: 0.98
25 | O=C(O)c1cc(-c2ccccc2)nc2ccccc12 | inactive: 1.11
26 | C[C@@H]1CCCCO[C@@H](CN(C)C(=O)C2CCCCC2)[C@@H](C)CN([C@@H](C)CO)C(=O)c2cc(NC(=O)Nc3ccc(C(F)(F)F)cc3)ccc2O1 | inactive: 1.02
27 | CC(C)CC#Cc1cnc2c(c1)C(=O)N([C@H](C)CO)C[C@@H](C)[C@@H](CN(C)S(=O)(=O)c1ccccc1)O2 | inactive: 1.02
28 | Cc1noc(C)c1S(=O)(=O)N(C)C[C@H]1Oc2ccc(NC(=O)Cn3cnnn3)cc2CC(=O)N([C@@H](C)CO)C[C@@H]1C | inactive: 1
29 | CN[C@H](CC(C)C)C(=O)N[C@H]1C(=O)N[C@@H](CC(N)=O)C(=O)N[C@H]2C(=O)N[C@H]3C(=O)N[C@H](C(=O)N[C@H](C(=O)O)c4cc(O)cc(O)c4-c4cc3ccc4O)[C@H](O)c3ccc(c(Cl)c3)Oc3cc2cc(c3O[C@@H]2O[C@H](CO)[C@@H](O)[C@H](O)[C@H]2O[C@H]2C[C@](C)(N)[C@H](O)[C@H](C)O2)Oc2ccc(cc2Cl)[C@H]1O | inactive: 0.749
30 | C[C@@H]1CN([C@@H](C)CO)C(=O)c2cc(Br)cnc2O[C@H]1CN(C)S(=O)(=O)c1cccs1 | inactive: 1.02
31 | C[C@H](CO)N1C[C@H](C)[C@@H](CN(C)C(=O)c2cccc(F)c2)Oc2cc(-c3cncnc3)ccc2S1(=O)=O | inactive: 1.01
32 | C[C@@H]1CN([C@@H](C)CO)C(=O)c2cc(NS(=O)(=O)c3ccc(Cl)cc3)ccc2O[C@@H](C)CCCCO[C@H]1CN(C)S(=O)(=O)c1ccc(F)cc1 | inactive: 1.02
33 | C[C@H](CO)N1C[C@H](C)[C@H](CN(C)CC2CCCCC2)Oc2c(NC(=O)Nc3cccc4ccccc34)cccc2C1=O | inactive: 1
34 | Cc1ccc(S(=O)(=O)Nc2ccc3c(c2)C(=O)N([C@@H](C)CO)C[C@@H](C)[C@@H](CN(C)CC2CC2)O3)cc1 | inactive: 1.01
35 | C[C@H]1CN([C@@H](C)CO)C(=O)c2cc(NC(=O)Cc3cn(C)c4ccccc34)ccc2O[C@@H]1CN(C)C(=O)Nc1ccc(C(F)(F)F)cc1 | inactive: 0.997
36 | COc1ccc(NC(=O)Nc2cccc3c2O[C@H](CN(C)S(=O)(=O)c2cn(C)cn2)[C@@H](C)CN([C@@H](C)CO)C3=O)cc1 | inactive: 1
37 | C[C@@H]1CN([C@@H](C)CO)C(=O)c2cccc(NC(=O)c3ccncc3)c2O[C@@H]1CN(C)Cc1ccc(C(=O)O)cc1 | inactive: 0.983
38 | CC1=C(/C=C/C(C)=C/C=C/C(C)=C\C(=O)O)C(C)(C)CCC1 | inactive: 0.985

Row | Compound | relative growth
39 | C[C@@H]1CCCCO[C@H](CN(C)S(=O)(=O)c2ccc(Cl)cc2)[C@@H](C)CN([C@H](C)CO)C(=O)c2cc(NC(=O)Cc3ccccc3)ccc2O1 | inactive: 1.01
40 | C[C@@H]1CC=CC[C@@H](c2cccc(Cl)c2)NC(=O)[C@@H](Cc2ccccc2)N(C)C(=O)c2ccccc2O1 | inactive: 0.956
41 | COc1ccc(S(=O)(=O)Nc2ccc3c(c2)C(=O)N([C@@H](C)CO)C[C@@H](C)[C@H](CN(C)C(=O)Nc2cccc4ccccc24)OCCCC[C@H](C)O3)cc1 | inactive: 1.01
42 | C[C@H]1CN([C@@H](C)CO)C(=O)c2cccc(NS(=O)(=O)c3cn(C)cn3)c2O[C@H]1CN(C)Cc1ccc2c(c1)OCO2 | inactive: 0.967
43 | C[C@@H]1CN([C@H](C)CO)C(=O)CCCn2nncc2CO[C@H]1CN(C)S(=O)(=O)c1ccc(Oc2ccccc2)nc1 | inactive: 1.01
44 | COc1ccc([C@H]2C/C=C\C[C@@H](c3cccc(Cl)c3)NC(=O)[C@H](c3ccccc3)CC(=O)N2)c(OC)c1 | inactive: 0.984
45 | C[C@@H]1CCCCO[C@@H](CN(C)CC2CCCCC2)[C@H](C)CN([C@@H](C)CO)C(=O)c2cc(NC(=O)CCCN(C)C)ccc2O1 | inactive: 0.974
46 | NCc1ccc(-c2nc3ccccc3o2)cc1 | inactive: 1.01
47 | COc1cc(/C=C/C(=O)CC2=N/C(=N/c3ccc(OC)c(OC)c3)S[C@H](c3ccc(O)c(OC)c3)C2)ccc1O | inactive: 1
48 | COc1ccc(NC(=O)Nc2ccc3c(c2)C(=O)N([C@@H](C)CO)C[C@@H](C)[C@H](CN(C)C(=O)Nc2ccc(F)cc2)OCCCC[C@@H](C)O3)cc1 | inactive: 1.04
49 | C[C@@H]1CN([C@@H](C)CO)C(=O)c2cc(NC(=O)Nc3ccc4c(c3)OCO4)ccc2O[C@@H](C)CCCCO[C@H]1CN(C)C(=O)Nc1ccc(C(F)(F)F)cc1 | inactive: 1.03
50 | CCOC(=O)c1[nH]c(C)c(C(=O)C2=C(O)C(=O)N(CCN3CCOCC3)[C@H]2c2cccc(OC)c2OC)c1C | inactive: 0.996
51 | Cc1cc(C(=O)Nc2cccc3c2O[C@H](CN(C)S(C)(=O)=O)[C@@H](C)CN([C@H](C)CO)C3=O)n(C)n1 | inactive: 0.984
52 | C[C@H](CO)N1C[C@H](C)[C@H](CN(C)C(=O)NC2CCCCC2)OCCCC[C@H](C)Oc2ccc(NC(=O)Nc3cccc4ccccc34)cc2C1=O | inactive: 1.04
53 | C[C@@H]1CN([C@@H](C)CO)C(=O)c2cc(NC(=O)CCC(F)(F)F)ccc2O[C@H]1CN(C)Cc1ccc(-c2ccccc2)cc1 | inactive: 0.986
54 | Cc1noc(C)c1S(=O)(=O)Nc1ccc2c(c1)CC(=O)N([C@H](C)CO)C[C@@H](C)[C@@H](CN(C)C(=O)NC(C)C)O2 | inactive: 1.04
55 | S=C1NCN(Cc2ccncc2)CN1 | inactive: 0.997
56 | C[C@H](NC(=O)C[C@@H]1CC[C@H](NC(=O)CN2CCOCC2)[C@@H](CO)O1)c1ccccc1 | inactive: 0.976
57 | C[C@@H]1CN([C@H](C)CO)C(=O)c2ccccc2-c2ccccc2CO[C@@H]1CN(C)Cc1ccc(-c2ccccc2)cc1 | inactive: 1.03
